{"source": "PubChem BioAssay AID463173", "about": "(ICCB-Longwood Screening Facility, Harvard Medical School, 2010)", "note": "Hit rate of the full screen: of about 52,000 compounds, about 4,300 (8.3%) were called active. Cut-off read from the data, not from the text of the source: active = survival mostly below about 52% (no sharp cut-off); inactive = mostly above about 56%. Some of the results follow."}
{"system": "DeltatarO mutant", "test": "S. aureus survival, RN4220 and DeltatarO strains – OD600, teichoic acid synthesis inhibitors, primary screen (AID 463173)", "settings": "S. aureus RN4220 wild type/DeltatarO growth, OD600, 18 h, stronger effect = lower value, screened at 18.75 µg/mL (by protocol)"}
{"smiles": "Cc1cc(N2CCN(C)CC2)nc2ccc(NC(=O)Nc3ccccc3)cc12", "survival": "inactive: 65%"}
{"smiles": "O=C(O)C1CCCCC1C(=O)Nc1cccc(C(=O)N2CCCCC2)c1", "note": "(stereo unspecified)", "survival": "inactive: 101%"}
{"smiles": "COc1cccc(CC(=O)NCc2ccc3c(c2)CCN3C(C)=O)c1", "survival": "inactive: 80%"}
{"smiles": "CN(C)S(=O)(=O)Nc1ccc(-c2cn3ccsc3n2)cc1", "survival": "inactive: 55%"}
{"smiles": "Cc1ccc2oc(C(=O)Nc3ccc(S(=O)(=O)N(C)Cc4ccccc4)cc3)cc(=O)c2c1", "survival": "inactive: 50%"}
{"smiles": "Cc1cccc(Cc2cnc(NC(=O)c3ccc4c(c3)CC(c3ccccc3)OC4=O)s2)c1", "note": "(stereo unspecified)", "survival": "inactive: 66%"}
{"smiles": "CCc1ccc(-n2c(=O)c3c4c(sc3n(CC(=O)NCCCOC)c2=O)CCC4)cc1", "survival": "inactive: 91%"}
{"smiles": "Cc1ccc(-n2nc(C(=O)N3CCN(c4ccccc4)CC3)c(=O)n(C)c2=O)cc1", "survival": "inactive: 124%"}
{"smiles": "COC(=O)c1ccccc1NC(=O)c1nc(S(=O)(=O)Cc2ccccc2F)ncc1Cl", "survival": "inactive: 110%"}
{"smiles": "CCCCOc1ccc(S(=O)(=O)n2nc(C)c(S(=O)(=O)N3CCC(C)CC3)c2C)cc1", "survival": "inactive: 85%"}
{"smiles": "CCCOC(=O)C(C)n1nnc2sc(-c3ccccc3)cc2c1=O", "note": "(stereo unspecified)", "survival": "inactive: 63%"}
{"smiles": "Cc1ccn2c(Nc3ccc4c(c3)OCO4)c(-c3ccc(O)cc3)nc2c1", "survival": "inactive: 64%"}
{"smiles": "CCCN1CCN(c2ncnc3sc(C(=O)Nc4ccc(N(CC)CC)cc4C)c(C)c23)CC1", "survival": "inactive: 117%"}
{"smiles": "O=C(CSCc1cnn(-c2ccccc2)c1-n1cccc1)NCc1ccccc1F", "survival": "inactive: 83%"}
{"smiles": "COc1cccc(CNS(=O)(=O)c2cc(Br)cc3c2N(C(C)=O)C(C)C3)c1", "note": "(stereo unspecified)", "survival": "inactive: 128%"}
{"smiles": "COc1ccc(NC(=O)c2nc(SCc3ccccc3F)ncc2Cl)cc1", "survival": "inactive: 73%"}
{"smiles": "O=C(NCCc1ccc(Cl)cc1)c1ccc2c(c1)N(Cc1ccccc1)CCS2", "survival": "inactive: 102%"}
{"smiles": "COc1cccc(N2CCN(C(=O)c3ccc(CS(=O)c4cccc(Cl)c4)o3)CC2)c1", "note": "(stereo unspecified)", "survival": "inactive: 75%"}
{"smiles": "O=C(Nc1ccc2oc(-c3cccnc3)nc2c1)c1ccc(-c2cccc(OC(F)(F)F)c2)o1", "survival": "inactive: 51%"}
{"smiles": "Cc1ccc(C)c(NC(=O)CCc2c(C)n(C)c3cc(-c4ccccc4C)nn3c2=O)c1", "survival": "inactive: 63%"}
{"smiles": "COc1ccc(Br)cc1S(=O)(=O)N1CCCCCC1", "survival": "inactive: 95%"}
{"smiles": "CC(C)Oc1ccc(CNC(=O)c2ccc3nc(SCc4ccc(F)cc4)n(C)c3c2)cc1", "survival": "inactive: 101%"}
{"smiles": "CC(NC(=O)c1ccc2nc(CCc3ccccc3)oc2c1)c1ccccc1", "note": "(stereo unspecified)", "survival": "inactive: 84%"}
{"smiles": "Cc1ccccc1Cn1c(C)c(CNCc2ccccc2)c(C(=O)O)c1C", "survival": "inactive: 84%"}
{"smiles": "COc1ccc(Cl)cc1NC(=O)c1cc(S(=O)(=O)N2CCc3ccccc32)cn1C", "survival": "inactive: 82%"}
{"smiles": "NC(=O)c1ccc2nc(N)sc2c1", "survival": "inactive: 102%"}
{"smiles": "Cc1ccc(-c2nc3cc(N=Cc4ccccc4O)ccc3o2)cc1", "survival": "inactive: 58%"}
{"smiles": "COc1cc2c(C(=O)N3CCN(c4cccc(C)c4)C(C)C3)cn(CC(C)C)c(=O)c2cc1OC", "note": "(stereo unspecified)", "survival": "active: 46%"}
{"smiles": "Cc1cccc(-n2c(=O)c3ccccc3n(Cc3ccccc3C#N)c2=O)c1", "survival": "inactive: 81%"}
{"smiles": "Cc1nn(CCC(=O)NC(C)C)c(=O)c2nn(-c3ccccc3)c(C)c12", "survival": "inactive: 74%"}
{"smiles": "CC(C)c1ccc(C2=CC(c3cccc(Cl)c3)n3ncnc3N2)cc1", "note": "(stereo unspecified)", "survival": "active: -1%"}
{"smiles": "CCC(=O)Nc1sc2c(c1C#N)CCCC2", "survival": "inactive: 97%"}
{"smiles": "Cc1ccc(C)c(Cn2c3ccccc3c3cnn(CC(=O)N4CCCCC4)c(=O)c32)c1", "survival": "inactive: 82%"}
{"smiles": "CCCN1C(C(=O)c2ccccc2)=C(OC(=O)c2ccc(F)cc2)c2ccccc2S1(=O)=O", "survival": "active: 31%"}
{"smiles": "CCOc1ccc(NC(=O)Cn2c(CCC(=O)O)ccc2-c2ccc(Cl)cc2)cc1", "survival": "inactive: 62%"}
{"smiles": "CN(CCC#N)CC1Cc2ccccc2O1", "note": "(stereo unspecified)", "survival": "inactive: 98%"}
{"smiles": "COc1cccc(C(=O)CN2CCN(S(=O)(=O)c3ccc(Cl)cc3)CC2)c1", "survival": "inactive: 74%"}
{"smiles": "COc1cc2ccccc2cc1C(=O)Nc1ccc2oc(-c3cc(Br)ccc3Cl)nc2c1", "survival": "inactive: 75%"}
{"smiles": "CCOc1ccccc1NC(=O)c1sc2nc3c(cc2c1N)CN(Cc1ccccc1)CC3", "survival": "inactive: 63%"}
{"smiles": "O=C(NCc1ccco1)c1ccc2c(c1)N(Cc1ccc(F)cc1)C(=O)c1ccccc1S2=O", "note": "(stereo unspecified)", "survival": "inactive: 76%"}
{"smiles": "O=C(CN1C(=O)CSc2ccc(S(=O)(=O)N3CCCCC3)cc21)NCc1ccc(F)cc1Cl", "survival": "inactive: 79%"}
{"smiles": "COc1cc(NC(=O)CCc2c(C)n(C)c3cc(-c4ccccc4C)nn3c2=O)cc(OC)c1OC", "survival": "inactive: 124%"}
{"smiles": "O=C(CSc1nc2c([nH]c3ccccc32)c(=O)n1-c1cccc(Cl)c1)N1CCc2ccccc21", "survival": "inactive: 73%"}
{"smiles": "CCc1nnc(NC(=O)c2nc(S(C)(=O)=O)ncc2Cl)s1", "survival": "inactive: 66%"}
{"smiles": "COc1cccc(Cc2nc3ccccc3nc2SCC(=O)N2CCCCC2C)c1", "note": "(stereo unspecified)", "survival": "inactive: 79%"}
{"smiles": "Cc1ccc2nc(NCc3ccccc3Cl)c3nnnn3c2c1", "survival": "inactive: 91%"}
{"smiles": "c1ccc(-c2nnc(CN3CCN(c4ccccc4)CC3)o2)cc1", "survival": "inactive: 57%"}
{"smiles": "COc1ccc(-c2noc(COc3ccc(Br)cc3C)n2)cc1OC", "survival": "active: 33%"}
{"smiles": "O=C(NCC1CCCO1)c1ccc(NC(=O)c2ncn[nH]2)cc1", "note": "(stereo unspecified)", "survival": "inactive: 95%"}
{"smiles": "CCc1cccc(C)c1NC(=O)Cn1ccn(Cc2ccc(Cl)cc2)c(=O)c1=O", "survival": "active: 41%"}
{"smiles": "CCOc1nc(NC(C)C)nc(NC(C)C)n1", "survival": "inactive: 76%"}
{"smiles": "Cc1ccc(-c2[nH]c(-c3ccccc3)nc2SCC(=O)NCC2CCCO2)cc1", "note": "(stereo unspecified)", "survival": "inactive: 74%"}
{"smiles": "COc1cccc(CNC(=O)C(=O)Nc2ccc3nc4n(c(=O)c3c2)CCCCC4)c1", "survival": "inactive: 97%"}
{"smiles": "Cc1ccc(N2CCN(C(=O)c3cc(S(=O)(=O)N4CCCCC4)c[nH]3)CC2)c(C)c1", "survival": "inactive: 102%"}
{"smiles": "Cc1ccc(/C=N/NC(=O)C2=NNC(=O)C2C)o1", "note": "(stereo unspecified)", "survival": "inactive: 87%"}
{"smiles": "Cc1ccc(-c2cc(C(=O)Oc3ccccc3Cl)no2)cc1C", "survival": "active: -1%"}
{"smiles": "CCN(CC)C(=O)CSc1nnc(-c2ccco2)n1CCCOC", "survival": "inactive: 89%"}
{"smiles": "Cc1ccc2nc(Cl)c3cc(C(=O)NC4CCC(C)CC4)sc3c2c1", "note": "(stereo unspecified)", "survival": "inactive: 57%"}
{"smiles": "Cc1ccc2c(c1C)NC(=O)CC2c1ccc(Cl)cc1Cl", "note": "(stereo unspecified)", "survival": "active: 4%"}
{"smiles": "Cn1c(C(O)c2ccccc2)n[nH]c1=S", "note": "(stereo unspecified)", "survival": "inactive: 93%"}
{"smiles": "CCc1ccc(OCC(=O)Nc2ccc(-c3nc4ncccc4o3)cc2)cc1", "survival": "inactive: 65%"}
{"smiles": "Cc1ccc2c(c1)nnn2C1CCN(CC(=O)N2c3ccccc3CC2C)CC1", "note": "(stereo unspecified)", "survival": "inactive: 95%"}
{"smiles": "O=C(CC1N=C2c3ccccc3N=C(SCc3cccc(F)c3)N2C1=O)NCc1ccc2c(c1)OCO2", "note": "(stereo unspecified)", "survival": "inactive: 97%"}
{"smiles": "Cc1ccc(OCC(=O)Nc2cccc(C(=O)OCc3cc(=O)n4nc(C)sc4n3)c2)cc1", "survival": "inactive: 78%"}
{"smiles": "O=C(CN1CCC(n2nnc3cc(F)ccc32)CC1)N1CCCc2ccccc21", "survival": "inactive: 73%"}
{"smiles": "O=C(O)c1ccc(NC(=O)c2cn(-c3ccccc3)nc2-c2ccc(Br)cc2)cc1", "survival": "active: 24%"}
{"smiles": "CC(=O)c1ccc(N2CCN(c3ncnc4onc(C)c34)CC2)cc1", "survival": "inactive: 55%"}
{"smiles": "CCN(CC)C(=O)Cn1cc(/C=C(\\C#N)C(=O)N2CCN(c3ccccc3)CC2)c2ccccc21", "survival": "inactive: 78%"}
{"smiles": "CC1CCC(NC(=O)c2ccc(CS(=O)(=O)c3c(Cl)cccc3Cl)o2)CC1", "note": "(stereo unspecified)", "survival": "inactive: 69%"}
{"smiles": "COc1ccc(OCC(=O)Nc2ccccc2C(=O)OCc2cc(=O)n3nc(C)sc3n2)cc1", "survival": "inactive: 95%"}
{"smiles": "COc1cc(-c2nc(-c3cccc(Cl)c3)c(-c3ccccc3)[nH]2)cc(OC)c1OC", "survival": "inactive: 126%"}
{"smiles": "COC(=O)c1ccc(CSc2nc3c(c(=O)[nH]2)CCC3)cc1", "survival": "inactive: 85%"}
{"smiles": "O=C(OC(C(=O)NCc1cccs1)c1ccccn1)c1cccs1", "note": "(stereo unspecified)", "survival": "inactive: 103%"}
{"smiles": "O=C(NCCN1CCCCC1)c1ccc(Cn2c(SCc3cccc(F)c3)nc3cccnc32)cc1", "survival": "inactive: 103%"}
{"smiles": "Cc1cccc(OCC(=O)N(Cc2ccccc2)c2ccccn2)c1", "survival": "inactive: 58%"}
{"smiles": "COc1ccc(CCNC(=O)c2ccc3c(Cl)c4c(nc3c2)CCCC4)c(OC)c1", "survival": "inactive: 86%"}
{"smiles": "CS(=O)(=O)N1CCCc2cc(C(=O)Nc3cccc(C(F)(F)F)c3)ccc21", "survival": "inactive: 62%"}
{"smiles": "COc1ccc(C2C(=O)N(C3CCCCCC3)CC(=O)N2CCC2=CCCCC2)cc1", "note": "(stereo unspecified)", "survival": "inactive: 54%"}
{"smiles": "CCOC(=O)c1ccc2c(c1)N(Cc1ccccc1)C(=O)c1ccccc1S2", "survival": "inactive: 73%"}
{"smiles": "O=C(CCn1nnc(-c2cccs2)n1)NC1CCCCC1", "survival": "inactive: 99%"}
{"smiles": "CC(C)CCn1c(=O)c2sccc2n2c(CCCC(=O)NC3CCC(C)CC3)nnc12", "note": "(stereo unspecified)", "survival": "inactive: 84%"}
{"smiles": "O=C(Nc1cc(Cl)cc(Cl)c1)c1ccc(F)c(S(=O)(=O)NC2CCCCC2)c1", "survival": "inactive: 74%"}
{"smiles": "[O-][n+]1c2c(nn1-c1ccccc1)/C(=N\\O)CCC2", "survival": "inactive: 56%"}
{"smiles": "CCCCc1ccc(NC(=O)CSc2nc3ccccc3nc2N2CCOCC2)cc1", "survival": "active: 30%"}
{"smiles": "COc1cccc(-c2cc(C(=O)Nc3ccn(Cc4ccc(C)cc4)n3)no2)c1", "survival": "active: 33%"}
{"smiles": "COc1ccc(CCNC(=O)CCSCc2ccccc2Cl)cc1OC", "survival": "inactive: 76%"}
{"smiles": "O=C(NCCS(=O)(=O)N1CCN(c2ccc(F)cc2)CC1)C1CC(=O)N(c2ccc(F)cc2)C1", "note": "(stereo unspecified)", "survival": "inactive: 101%"}
{"smiles": "CCc1ccccc1NC(=O)Cn1c(=O)n(Cc2ccco2)c(=O)c2sc3ccccc3c21", "survival": "inactive: 62%"}
{"smiles": "Cc1ccc(NC(=O)Cn2c(=O)n(Cc3ccc4c(c3)OCO4)c(=O)c3ccccc32)c(C)c1", "survival": "inactive: 95%"}
{"smiles": "Cc1ccc(C)c(N2CCN(S(=O)(=O)c3cnc(N)nc3)CC2)c1", "survival": "inactive: 86%"}
{"smiles": "Cc1ccc2nc(N3CCN(c4cccc(C)c4C)CC3)c3nncn3c2c1", "survival": "active: 39%"}
